Measurements from the RNAGym collection of RNA variant scans (doi:10.7554/elife.90254).
Read counts are not given, so values of variants with three or more changes are uncertain.

B1: LINE1-full (parent)
chain: UACGUAGGUGGUUUUCCCCUGAUAGUGCUAAGGGGGCCUGGAAGUUUGGACUGGGCAGAGCUCAACACAGCGUGGCAAAGUGGCUGUGGCUAGACUGCCUCUCUGGAUUCCUCGUCACUCAGCAGGGCAUCUCUGAGAGAAAUGCC

Variants of: B1
Test: self-cleavage, relative activity (ratio to wild type); higher = more cleavage; in vitro, sequencing; the parent is a self-cleaving ribozyme

Variant	self-cleavage
AACGUGGGUGGUUUUCCCCUGAUAGUACUAAGGGGGCCUGGAAGUUUGGACUGGGCAGAGCUCAACACAGCGUGGCAAAGUGGCUGUGGCUAGACUGCCUCUCUGGAUUCCUCGUCACUCAGCAGGGCAUCUCUGGGAGAAAUGCC [U1A A6G G27A A136G]	0.98
AACGUAGGUGGUUUUCCCCUGGUAGUGCUAAGGGGGCCUGGAAGUUUGGACUGGGCAGAGCUCAACACAGCGUGGCAAAGUGGCUGUGGCUAGACUGCCUCUCUGGAUUCCUCGUCACUCAGCAGGGCAUCUCAGAGAGAAAUGCC [U1A A22G U134A]	0.77
AACGUAGGUGGUCUUCCCCUGAUAGUGCUAAGGGGGCCUGGAAGUUAGGACUGGGCAGAGCUCAACACAGCGUGGCAAAGUGGCUGUGGCUAGACUGCCUCUCUGGAUUCCUCGUCACUCAGCAGGGCGUCUCUGAGAGAAAUGCC [U1A U13C U47A A129G]	0.31
AACGUAGGUGGUUUUCCCCUGAUAGUGCUAAGGGGGCCUGGAAGUUUGGACUGAGCAGAGCUCAACACAGCGAGGCAAAGUGGCUGUGGCUAGACCGCCUCUCUGGAUUCCUCGUCACUCAGCAGGGCAUCUCUGAGAGAAAUGCC [U1A G54A U73A U96C]	0.04
AGCGUAGGUGGUUUUCCCCUGAUAGUGCUAAGGGGGCCUGGAAGUUUGGACUGGGCAGAGCUCAACACAGCGUGGCAAAGUGGCUGUGGCUAGACUGCCUCUCUGGAUUCCUCGUCGCUCAGCAGGGCAUCUCUGAGAGAGAUGCC [U1A A2G A117G A141G]	1.16
AACGUAGGUGGCUCUCCCCUGAUAGUGCUAAGGGGGCCUGGGAGUUUGGUCUGGGCAGAGCUCAACACAGCGUGGCAAAGUGGCUGUGGCUAGACUGCCUCUCUGGAUUCCUCGUCACUCAGCAGGGCAUCUCUGAGAGAAAUGCC [U1A U12C U14C A42G A50U]	1.67
AACGUAGGUGGUUUUCCCCUGAUAGUGCUAAGGGGGCCUGGAGGUUUGGACUGGGCAGAGCUCAACACAGCGUGGCAAAGUGGCUGUGGCUAGACUGCCUCUCUGGAUUCCUCGACACUCAGCAGGGCAUCUCUGGGAGAAAUGCC [U1A A43G U115A A136G]	1.45
AACGUAGGUGGUUUUCCCCUGAUAGCGCUAAGGGGGCCUGGAAGUUUGGACUGGGCAGAGCUCAACACAGCGUGGCAAAGUGGCCGUGGCUAGACUGCCUCUCUGGAUUCCUCGUCACUCAGCAGGGCAUCUCUGAGAGAAAUGCC [U1A U26C U85C]	0.61
AACGUAGGUGGUUUUCCCCUGAUAGUGCUAAGGGGGCCUGGAAGCUUGGACUGGGCAGAGCUCAACACAGCGUGGCAAAGUGGGUGUGGCUAGACUGCCUCUCUGGAUUCCUCGUCACUCAGCAGGGCAUCUCUGAGAGAAAUGCC [U1A U45C C84G]	0.13
AACGUAGGUGGUUAUCCCCUGAUAGUGCUAAGGGGGCCUGGAAGUUUGGACUGGGCAGAGCUCAACACAGCGUGGCAAAGUGGCUGUGGCUAGACUGCCUCUCUGGAUUCCUCGUCACUCAGCAGGGCAUCUCUGAGAGAAAUGCU [U1A U14A C146U]	1.79
AACGUAGGUGGUUUUCCCCUGGUAGCGCUAAGGGGGCCUGGAAGUUUGGACUGGGCAGAGCUCAACACAGCGUGGCAAAGUGGCUGUGGCUAGACUGCCUCUCUGGAUUCCUCGUCACUCAGCAGGGCAUCUCUGAGAGAAAUGCC [U1A A22G U26C]	2.45
AACGUAGGUGGUUUUCCCCUGAUAGUGCUAAGGGGGCCUGGAAGUUUGGACUGGGCAGAGCUCAACACAGAGUGGCAAAGUGGCUGUGGCUAGACUGCCUCUCUGGAUUCCUCGUCACUCAGCAGGGCAUCUCUGGGAGAAAUGCC [U1A C71A A136G]	0.42
AACGUAGGCGGUUUUCCCCUGAUAGUGCUAAGGGGGCCUGGAAGUUUGGACUGGGCAGAGCUCAACACAGCGUGGCAAAGUGGCUGUGGCUAGACUGCCUCUCUGGAUUCCUCGUCCCUCAGCAGGGCAUCUCUGAGAGAAAUACC [U1A U9C A117C G144A]	1.48
AACGUAGGUGGUUUUCCCCUGAUAGUGCUAAGGGGGCCUGGAAGUUUGGACUGGGCAGAGCUCAACACAGCGUGGCAAAGUGGCUGUGGCUAGUCUGCCUCUCUGGAUCCCUCGUCACUCAGCAGGGCAUCUCUGAGAGAAAUGCC [U1A A94U U109C]	0.51
AACGUAGGCGGUUUUCCCCUGAUAGUGCUAAGGGGGCCUGGAAGUUUGGUCUGGGCAGGGCUCAACACAGCGUGGCAAAGUGGCUGUGGCUAGACUGCCUCUCUGGAUUCCUCGUCACUCAGCAGGGCAUCUCCGAGAGAAAUGCC [U1A U9C A50U A59G U134C]	0.35
AGCGUAGGUGGUUUUCCCCUGAUAGUGCUAAGGGGGCCUGGAAGUUUGGACUGGGCAGAGCUCAACACAGCGUGGCGAAGCGGCUGUGGCUAGACUGCCUCUCUGGAUUCCUCGUCACUCAGCAGGGCAUCUCUGAGAGAAAUGCC [U1A A2G A77G U81C]	1.84
AACGUAGGUGGUCUUCCCCUGAUAGUGCUAAGGGGGCCUGGAAGUUUGGACUGGGCAGAGCACAACACAGCGUGGCAAAGUGGCUGUGGCUAGACUGCCUCUCUGGAUUCCUCGUCACUCAGCAGGGCAUCUCUGAGAGAAAUGCC [U1A U13C U62A]	0.27
AACGUAGGUGGUUUUCCCCUGAUAGUACUAAGGGGGCCUGGAAGUUUGGACUGGGCAGAGCUCAGCACAGCGUGGCAAAGUGGCUGUGGCUAGACUGCCUCUCUGGAUCCCUCGUCACUCAGCAGGGCAUCUCUGAGAGAAAAGCC [U1A G27A A65G U109C U143A]	0
AACGUAGGUGGUCUUCCCCUGAUAGUGCUAAGGGGGCCUGGAAGUUUGGACUGGGCGGAGCUCAACACAGCGUGGCAAAAUGGCUGUGGCUAGACUGCCUCUCUGGAUUCCUCGUCACUCAGCAGGGCAUCUCCGAGAGAAAUGCC [U1A U13C A57G G80A U134C]	0.81
AACGUAGGUGGUUUUCCCCUGAUAGUGCUAAGGGGGCCUGGAAGUUUGGACUGGGCGGAGCUCAACACAGCGUGGCAAAGUGGCUGUGGCUAGACUGCCUCCCUGGAUUCCUCGUCACUCAGCAGGGCAUCUCUGAGAGAAAUGCC [U1A A57G U102C]	0.85

Variant	self-cleavage
AACGUAGGAGGUUUUCCCCUGAUAGUGCUAAGGGGGCCUGGAAAUUUGGACUGGGCAGAGCUCAACACAGCGUGGCAAAGUGGCUGUGGCUAGGCUGCCUCUCUGGAAUCCUCGUCACUCAGCAGGGCAUCUCUGAGAGAAAUGCC [U1A U9A G44A A94G U108A]	0.38
AACGUAGGUGGUUUUCCCCUGAUAGUGCUAAGGGGGCCUGGAAGUUUGGACUGGGCAGAGCUCGACGCAGCGUGGCAAAGUGGCUGUGGCUAGACUGCCUCUCUGGAUUCCUUGUCACUCAGCAGGGCAUCUCUGAGGGAAAUGCC [U1A A64G A67G C113U A138G]	0.19
AACGUAGGUGGUUUUCCCCUGAUAGUGCUAAGGGGGCCUGGAAGUUUGGACUGGGCAGGGCUCAACACAGCGUGGCAAAGUGGCUGUGGCUAGACUGCCUCUCUGGAUUCCUCGUCACUCAGCAGGGCAUCUCUGAGGGAAAUGCC [U1A A59G A138G]	0.17
AACGUAGGUGGUUUUCCCCUGGUAGUGCUAAGGGGGCCUGGAAGUUUGGACUGGGCAGAGCUCAACACAGCGUGGCAGAGUGGGUGUGGCUAGACUGCCUCUCUGGAUUCCUCGUCACUCAGCAGGGCACCUCUGAGAGAAAUGCC [U1A A22G A78G C84G U130C]	0.28
AACGUAGGUGGUUUUCCCCUGAUAGUGCUGAGGGAGCCUGGAAGUUUGGACUGGGCAGAGCUCAACACAGCGUGGCAAAGUGGCUGUGGCUAGACUGCCUCUCUGGAUUCCUCGUCACCCAGCAGGGCAUCUCUGAGAGAAAUGCC [U1A A30G G35A U119C]	1.24
AACGUAGGUGGUUAUCCCCUGAUAGUGCUAAGGGGGCCUGGAAGCUUGGACUGGGCAGAGCUCAACACAGCGUGGCAAAGUGGCUGUGGCUAGACUGCCUCUCUGGAUUCCUCGUCACUCUGCAGGGCAUCUCUGAGAGAAAUGCC [U1A U14A U45C A121U]	0.21
AACGUAGGUGGUUUUCCCCUGAUAGUGCUAAGGUGGCCUGGAAGUUUGGACUGGGCAGAGCUCAACUCAGCGUGGCAAAGUGGCUGUGGCUAGACUGCCUCUCUGGAUUCCUCGUCACUCAGCAGGGCAUCUCUGAGAGGAAUGCC [U1A G34U A67U A140G]	0.31
AACGUAGGUGGUUUUCCCCUGAUAGUGCUAAGGGGGCCUGGAAGUUUGGACUGGGCAGAGCUCAACACUGCGUGGCAAAGUGGCUGUGGCUAGACUGCCUCUCUGGACUCCUCGUCACUCAGCAGGGCAUCUCCGAGAGAAAUGCC [U1A A69U U108C U134C]	0.22
AACGUAGGUGGUUUUCCCCCGAUAGUGCUAAGGGGGCCUGGAAGUUUGGACUGGGCAGAGCUCAACACAGCGUGGCAAAGUGGCUGUGGCUAGACUGCCUCUCAGGAUUCCUCGUCACUCAGCAGGGCAUCUCUGUGAGAAAUGCC [U1A U20C U104A A136U]	1.51
AACGUAGGUGGUUUUCCCCUGAUGGUGCUAAGGGGGCCUGGAAGCUUGGACUGGGCAGAGCUCAACACAGCGUGGCAAAGUGGCAGUGGCUAGACUGCCUCUCUGGAUUCCUCGUCACUCAGCAGGGCAUCUCUGAGAGAGAUGCC [U1A A24G U45C U85A A141G]	0.35
AGCGUAGGUGGUUCUCCCCUGAUAGUGCUAAGGGGGCCUGGAAGUUUGGACUGGGCAGAGCUCAACACAGCGUGGCAAAGUGGCUGUGGCUAGACUGCCUCUCUGGAUUCCUCGUCACUCAGCAGGGCAUCUCUGAGAGAAGUGCC [U1A A2G U14C A142G]	0.64
AACGUAGGUGGUUUUCCCCUGAUAGUGCUAAGGGGGCCUGGGAGUCUGGACUGGGCAGAGCUCAACACAGCGUGGCAAAGUGGCUGUGGCUAGACUGCCUCUCUGGAUUCCUCGUCACUCAGCAGGGCAUCUCUGAGAGAAACGCC [U1A A42G U46C U143C]	0.65
AACGUAGGUGGUUUUCCCCUGAUAGUGCUAAGGGGGCCUGGAGGUUUGGACUGGGCAGAGCUCAACACAGCGUGGCAAAGUGGCUGUGGCUAGACUGCCUCUCUGGAUUCCUCGUCACUCAGGAGGGCAUCUCCGAGAGAAAUGCC [U1A A43G C123G U134C]	0.96
ACCGUAGGUGGUUUUCCCCUGAUAGUGCAAAGGGGGCCUGGAAGUUUGGACUGGGCAGAGCUCAACUCAGCGUGGCAAAGUGGCUGUGGCUGGACUGCCUCUCUGGAUUCCCCGUCACUCAGCAGGGCACCUCUGAGAGAAAUGCC [U1A A2C U29A A67U A92G U112C U130C]	0
AACGCAGGUGGUUUUCCCCUGAUAGUGCUAAGGGGGCCUGGAAGUUUGGACUGGGCAGAGCUCAACACAGCGUGGCAAAGUGGCUGUGGCUAGACUGCCUCUCUGGAUUCCUCGUCACUCAGCAGGGCAUCUCUGAGAGAGAUGCC [U1A U5C A141G]	1.62
AACGUAGGUAGUUUUCCCCUGAUAGUGCUAAGGGGGCCUGGAAGUUCGGACUGGGCAGAGCUCAACACAGCGUGGCAAAGUGGCUGUGGCUAGACUGCCUCUCUGGAUUCCUCGUCACUCAGCAGGGCAUCUCUGAGAGAAAUGCC [U1A G10A U47C]	0.49
AACGUAGGUGGUUUUCCCCUGACAGUGCUAAGGGGGCCUGGAAGUUUGGACUGGGCAGAGCUCAACACAGCGUGGCAAAGUGGCUGUGGCUAGACUGCCCCUCUGGAUUCCUCGUCACACAGCAGGGCAUCUCUGAGAGAAAUGCC [U1A U23C U100C U119A]	1.62
AACGUAGGUGGUUUUCCCCAGAUAGUGCUAAGGGGGCCUGGAAGUUUGGACUGGGCAGAGCUCAACACAGCGUGGCAAAGUGGCUGUGGCUAGACUGCCUCUCUGGAUUCCUCGUCACUCAGCAGGGCAUCUCUGAGAGAGAUGCC [U1A U20A A141G]	0.69
AACGUAGGUGGUUUUCCCCUGAUAGUGCUUAGGGGGCCUGGAAGUUUGGGCUGGGCAGAGCUCAACACAGCAUGGCAAAGUGGCUGUGGCUAGACUGCCUCCCUGGAUUCCUCGUCACUCAGCAGGGCAUCUCUGAGAGAAAUGCC [U1A A30U A50G G72A U102C]	2.3
